Experimental data taken from PubChem BioAssay AID1963576 (National Center for Advancing Translational Sciences (NCATS), 2024).
Out of some 46,000 compounds screened, about 60 (0.1%) were called active. Inconclusive results (about 3%) are left out. Calls come from the whole dose curve; as a rule, active = well fitted inhibition curve with a large enough effect; inconclusive = small, poorly fitted or top-dose-only effect; inactive = no such curve, though single readings can be large or run the other way. The list shows a part of the results.

Test: Primary qHTS assay for Inhibitors of ovarian cancer metastasis using an organotypic tumor microenvironment (TME) model.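 For activity change, negative = inhibition: plate controls were DMSO wells for no effect and tomatine positive control wells for full effect.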 Note: nearly all actives have a fitted effect of over 65% in size.
Details: SKOV3ip1-GFP adhesion/invasion on 3D omental model, fluorescence; series mostly up to 45.8 µM; activity change, negative = inhibition: at the top concentration
Summary of the method: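 qHTS, 4-pt dose (0.36-46 umol/L); SKOV3ip1-GFP, 1,200 cells/well, no FBS; primary omental fibroblast/mesothelial co-culture 48 h pre-grown; 2 h RT + 16 h 37 C; PBS wash, 4% PFA; GFP count 488/509 nm.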

Activity change, negative = inhibition, inactive:
COc1ccc(NC(C)=O)cc1NC(=O)CN1CCN(c2ccc(F)cc2)CC1 3.17%
O=C(NCCCN1CCOCC1)c1ccc2c(c1)N(Cc1cccc(Cl)c1)C(=O)c1ccccc1S2 -20.1%
Cc1cc(Nc2cccc(C(F)(F)F)c2)nc2ccc(NC(=O)c3cccc(Cl)c3)cc12 -1.77%
O=C(Cn1cc(S(=O)(=O)c2ccccc2)c(=O)c2cc(Cl)ccc21)Nc1ccc2c(c1)OCO2 6.06%
Cc1ccn2c(=O)cc(COc3cccc(NC(=O)Nc4cccc(Cl)c4C)c3)nc2c1 0.112%
Cc1ccc(CNC(=O)c2ccc(CS(=O)Cc3cccc(Cl)c3)o2)cc1 (stereo not drawn) 5.18%
CCCCN(CCCNC(=O)c1cc(Nc2ccc(OC)c(OC)c2)nc2ccccc12)c1ccccc1 -3.05%
CC1CCCN(S(=O)(=O)c2ccc3c(c2)c(=O)nc2ccccn23)C1 (stereo not drawn) -9.33%
Cc1ccc(-c2cn3c(n2)sc2cc(C(=O)NCCCc4ccccc4)ccc23)c(C)c1 -3.44%
CCOc1ccc(CNCc2c(C(=O)O)c(C)n(Cc3c(F)cccc3Cl)c2C)cc1OC 0.9%
Cc1ccccc1Nc1c(-c2cccnc2)nc2ccc(Cl)cn12 0.238%
COc1ccc(C2=C(Nc3ccc(C)cc3C)c3ccccc3C2=O)cc1 0.729%
CCc1cccc(NC(=O)CN(C)S(=O)(=O)c2ccc3c(c2)CCCN3C(C)=O)c1 0.475%
COc1ccccc1-c1noc(-c2ccc(NCC3CCCO3)c([N+](=O)[O-])c2)n1 (stereo not drawn) -17.2%
Cc1cc(C)c(S(=O)(=O)NCC(c2ccc(N(C)C)cc2)N2CCOCC2)c(C)c1 (stereo not drawn) -8.57%
Cc1ccc2oc(=O)n(CCCOc3ccccc3Cl)c2c1 1.97%
CCOC(=O)c1cnc2c(C)c(Cl)ccc2c1Nc1ccc(N2CCOCC2)cc1 -7.13%
CC(CCc1ccccc1)NC(=O)Cn1c(=O)nc(-c2ccccc2)c2ccccc21 (stereo not drawn) -0.358%
CC(C)c1ccc(S(=O)(=O)N2CCC(N3CCN(Cc4ccccc4)C(=O)C3=O)CC2)cc1 -2.82%
CCOc1ccc(-c2nc(CSCC(=O)NCCc3ccc(OCC)c(OCC)c3)c(C)o2)cc1 -6.21%
COc1ccccc1-c1c(C)nn2c(N3CCN(c4ccccc4)CC3)cc(C)nc12 2.47%
CCn1c(=O)c(=O)n(CC)c2cc(N3CCCCC3)c(NC(=O)c3ccccc3OC)cc21 -1.74%
CCCN1CCN(CC2=C(C(=O)OCC)C(c3ccc(OC(C)C)cc3)NC(=O)N2)CC1 (stereo not drawn) -1.23%
COc1cccc(CNC(=O)C(=O)NCC(c2ccc3c(c2)OCO3)N2CCOCC2)c1 (stereo not drawn) -5.24%
CCCOC1(C(F)(F)F)NC(=O)N(c2cccc(Cl)c2)C1=O (stereo not drawn) 25%
CCC(C)NC(=O)CSc1c2c(nc3cc(Cl)ccc13)CCCC2 (stereo not drawn) 3.12%
COc1ccc(OC)c(CNC(=O)CN2N=C(c3ccc(Cl)cc3)CCC2=O)c1 -9.22%
O=C(NCCc1ccc(Cl)cc1)C(=O)NCC(c1cccs1)S(=O)(=O)c1cccs1 (stereo not drawn) 5.65%
COc1ccc(-n2nc3cc(C)c(NC(=O)Cc4ccc(Cl)cc4)cc3n2)cc1 -6.27%
CCOc1ccc(NC(=O)CSc2nnc(CNC(=O)C34CC5CC(CC(C5)C3)C4)n2CC)cc1 17.3%
CCOC(=O)c1ccccc1NC(=O)Nc1cc2c(cc1N1CCCC1)n(C)c(=O)n2C -6.06%
CCCc1cc(=O)[nH]c(Nc2cc(C)cc(C)c2)n1 -11.1%
COc1cc(C(=O)N(Cc2ccc(N(C)C)cc2)CC2CCCO2)cc(OC)c1OC (stereo not drawn) -13.5%
COc1cccc(Cn2c(C)c(CNC3CCCCC3)c(C(=O)O)c2C)c1 1.94%
CCCC12CN3CC(CCC)(CN(C1)C3c1ccc(OC(C)C)cc1)C2=O (stereo not drawn) -4.07%
CCc1ccc(NC(=O)CSc2nc(-c3cccc(OC)c3)nc3c2Cc2c(CO)cnc(C)c2O3)cc1 19.6%
O=C(NCCc1ccccc1)c1ccc(Cn2c(SCc3ccccc3F)nc3cccnc32)cc1 -7.19%
COc1ccc(NC(=O)c2oc3ccccc3c2NC(=O)Cc2coc3ccc(C)cc23)cc1 7.99%
Cc1ccc2nc(-c3ccc(C)o3)c(Nc3ccc4c(c3)OCCO4)n2c1 -6.71%
Clc1ccccc1CSc1nnc(C2CCNCC2)o1 -5.79%
CCOc1ccc(NC(=O)CCCOc2cc(=O)n(C)c3ccccc23)cc1 -6.14%
COc1ccc(N2CC(NC(=O)C3CCCCC3)CC2=O)cc1OC (stereo not drawn) 18%
Cc1nc(SCC(=O)Nc2nsc(-c3ccc(C(C)(C)C)cc3)n2)c2c3c(sc2n1)CCCC3 3.47%
COc1ccc(N2CCN(S(=O)(=O)CCNC(=O)Cc3ccc(OC)c(OC)c3)CC2)cc1 2.35%
O=C(CSc1nc2ncccc2o1)Nc1cccc(C(F)(F)F)c1 0.293%
O=C(Cn1c(=O)n(-c2ccccc2)c(=O)c2ccc(C(=O)NCc3ccc4c(c3)OCO4)cc21)Nc1ccc(Br)cc1 -2.63%
CCCCN(CC)C(=O)c1nn(-c2ccc(OC)cc2)c(=O)c2c1c1ccccc1n2C 56.9%
COc1ccc(OC)c(CNC(=O)c2ccc3c(c2)c(C)c(C)n3C)c1 -7.89%
COC(=O)c1ccc(NC(=O)CCc2c(C)nc3c(c(C)nn3C(C)(C)C)c2C)cc1 6.81%
COc1ccc(OC)c(CNC(=O)c2nn(C)c3c2CS(=O)(=O)c2ccccc2-3)c1 -3.79%
CN(C)C(=O)c1ccc2c(c1)N(CC(=O)NCc1ccccc1Cl)C(=O)C1CCCCN21 (stereo not drawn) -7.92%
Cc1ccccc1CSc1nc(-c2cccc(F)c2)nc2c1Cc1c(CO)cnc(C)c1O2 5.41%
CC(=O)Nc1ccc(Nc2ncnc3c2cnn3C)cc1 1.13%
COc1ccccc1-c1noc(CCCC(=O)Nc2cccc(C(F)(F)F)c2)n1 -6.85%
CCOC(=O)c1c(NC(=O)c2cc(OC)c(OC)c(OC)c2)sc2c1CCCC2 -2.53%
Cc1ccc(C)n1-c1nnc(N2CCCC(C(=O)Nc3ccccc3Br)C2)s1 (stereo not drawn) -8.86%
CCCN(CCC)C(=O)Cn1c(=O)n(CCCCCC(=O)NCc2ccc3c(c2)OCO3)c(=O)c2sccc21 -2.87%
C[C@@H](NC(=O)c1ncnc(N)c1Cl)c1ncc(C(=O)Nc2cc(C(F)(F)F)c(Cl)cn2)s1 1.28%
COc1ccc(NC(=O)CCCn2c(=O)c3cccn3c3cccnc32)cc1Cl -4.5%
COc1ccc(-c2cn3nc(N4CCC(C(=O)Nc5cc(Cl)ccc5C)CC4)sc3n2)cc1 13.5%
Cc1ccc(NC(=O)Cn2cnc3onc(-c4ccc(F)cc4)c3c2=O)c(Cl)c1 14.7%
CCc1cccc(-n2c(=O)c3cccnc3n2CC(=O)NCc2ccc(C)cc2)c1 -2.1%
O=C(CCCCCn1c(=O)c2sccc2n(CC(=O)Nc2cc(C(F)(F)F)ccc2Cl)c1=O)NCc1ccccc1Cl -24.8%
COc1ccccc1-c1cc2nc(C)c(CCC(=O)NCCc3cccc(C)c3)c(C)n2n1 3.69%
CC1=C(C(=O)Nc2cc(Cl)ccc2C)C(c2sccc2C)n2ncnc2N1 (stereo not drawn) -24.3%
Cc1ccc(Cl)cc1N1CCN(C(=O)CSc2cc(=O)n(C)c3ccccc23)CC1 0.939%
CC(C)(C)c1ccc2c(c1)N(CC(=O)NCCCN1CCN(c3ccccc3F)CC1)C(=O)CO2 -5.58%
COc1ccc(C(=O)Nc2ccc3nc(SCC(=O)N(C)c4ccccc4)sc3c2)cc1 -5.53%
CSc1ncc(C(=O)NCc2ccc(C)cc2)c(C)n1 11.3%

outcome, inactive:
O=S(=O)(c1cccc2ccccc12)N1CCN(c2ccc(Cl)c(Cl)c2)CC1
COc1ccccc1NC(=O)C1=C(C)Nc2nc3ccccc3n2C1c1cccc(OC)c1OC (stereo not drawn)
COc1ccc(-c2cc(C(F)(F)F)nc(SCC(=O)NCC(C)C)n2)cc1OC
CCc1nn2c(=O)c(S(=O)(=O)Nc3ccc(Cl)cc3)c(C)nc2s1
CCCCN(C)CCNC(=O)CN1C(=O)CSc2ccc(S(=O)(=O)N3CCOCC3)cc21
C=Cc1ccc(Cn2c(C(=O)O)c(CNC3CCCCC3)c3ccc(OC)cc32)cc1
O=C(Nc1ccc2nc(SCC(=O)N3CCOCC3)sc2c1)c1ccc(Br)cc1
Cc1cc2oc(C(=O)Nc3cccc(-c4nc5ccccc5o4)c3)c(C)c2cc1C
COc1ccc(-c2noc(-c3ccc(N4CCN(c5ccccc5OC)CC4)c([N+](=O)[O-])c3)n2)cc1
Cc1c(C(=O)N(C)C)sc2c1c(=O)n(-c1ccc(Cl)c(Cl)c1)c(=O)n2CC(=O)N1CCCCC1C (stereo not drawn)
CC(Oc1ccccc1)C(=O)Nc1ccccc1C(=O)OCc1cc(=O)n2nc(C(C)C)sc2n1 (stereo not drawn)
O=C(CSc1nc(=O)n(Cc2ccncc2)c2c1CCC2)Nc1ccc(F)cc1F
CCCN1CN=C(NS(=O)(=O)c2ccc(NC(C)=O)cc2)NC1
COc1ccc(N2CCN(C(=O)CN3C(=O)COc4ccc(S(=O)(=O)N5CCC(C)CC5)cc43)CC2)cc1
O=C(c1cnc2c(c1)COc1ccc(Cl)cc1-2)c1ccccc1O
CCOc1cc(CNC(=O)c2ccc3nc(C(C)C)oc3c2)cc(OCC)c1OCC
Cc1ccc(C)c(N2CCN(C(=O)c3cc4c(=O)oc5ccccc5c4s3)CC2)c1
Cc1ccc2occ(-c3cc(-c4ccc(F)cc4)nc4c3COc3ccc(F)cc3-4)c(=O)c2c1
CC1CCN(c2ncnc3c2c(-c2ccccc2)cn3-c2ccc(Br)cc2)CC1
CCOc1ccccc1CNC(=O)c1oc2c(c1C)-c1[nH]ncc1CC2
CC(C)(C)c1ccc(OCC(=O)NCC2(N3CCOCC3)CCCCC2)cc1
O=C(CN1C(=O)C2(SCC(=O)N2c2cccc(Cl)c2)c2ccccc21)NCc1ccccc1 (stereo not drawn)
Cc1cccc(CC(=O)Nc2ccc3nc(N4CCC(C)CC4)cc(C)c3c2)c1
O=C(CSc1cn(CCNC(=O)c2cccc(C(F)(F)F)c2)c2ccccc12)Nc1ccc2c(c1)OCCO2
